These are yes or no findings as the source states them, for the method shown. In cells and extracts the contact can be indirect. Some binding calls cover weakened binding; strength is not graded here.
How the values were obtained:
[1] = biological target: TDP43^219 (Val^219-TDP43^f), C-terminal fragment of human TDP43, amino acids 219 - 414, bearing N-terminal Val and a C-terminal FLAG tag (human) (UniProt Q13148); test: co-IP; anti-TDP43 IP from the soluble fraction of BAG6-KO HEK293T cells co-expressing FLAG-tagged TDP43 fragment with exogenous BAG6 (and TRC35, UBL4a, RNF126); anti-FLAG immunoblot
[2] = biological target: TDP43^247 (Val^247-TDP43^f), C-terminal fragment of human TDP43, amino acids 247 - 414, bearing N-terminal Val and a C-terminal FLAG tag (human) (UniProt Q13148); test: as above
[3] = biological target: BAG6, wild type, FLAG-tagged, exogenously overexpressed (pRK5-FLAG-Bag6) (UniProt P46379); test: co-IP; anti-BAG6 IP from soluble fractions of HEK293T cells overexpressing the fragments and BAG6 or BAG6ΔUBL; blots with anti-TDP43, anti-FLAG or anti-Myc; lysis/wash buffer 50 mM HEPES pH 7.5, 10% glycerol, 0.05% NP-40, 150 mM NaCl, 4°C
[4] = biological target: TDP43^219 (Val^219-TDP43^f), C-terminal fragment of human TDP43, amino acids 219 - 414, bearing N-terminal Val and a C-terminal FLAG tag (human) (UniProt Q13148); test: co-IP; anti-FLAG IP of C-terminally FLAG-tagged TDP43 fragments (or DHFR-Ub) from detergent-soluble and -insoluble (urea solubilized) fractions of HEK293T cells treated with MG132; endogenous BAG6 detected by anti-BAG6 blot; lysis/wash buffer 50 mM HEPES pH 7.5, 10% glycerol, 0.05% NP-40, 150 mM NaCl, 4°C
[5] = biological target: TDP43^247 (Val^247-TDP43^f), C-terminal fragment of human TDP43, amino acids 247 - 414, bearing N-terminal Val and a C-terminal FLAG tag (human) (UniProt Q13148); test: as above

Amino acid sequences for entries named in this document (tags omitted).
UniProt P46379: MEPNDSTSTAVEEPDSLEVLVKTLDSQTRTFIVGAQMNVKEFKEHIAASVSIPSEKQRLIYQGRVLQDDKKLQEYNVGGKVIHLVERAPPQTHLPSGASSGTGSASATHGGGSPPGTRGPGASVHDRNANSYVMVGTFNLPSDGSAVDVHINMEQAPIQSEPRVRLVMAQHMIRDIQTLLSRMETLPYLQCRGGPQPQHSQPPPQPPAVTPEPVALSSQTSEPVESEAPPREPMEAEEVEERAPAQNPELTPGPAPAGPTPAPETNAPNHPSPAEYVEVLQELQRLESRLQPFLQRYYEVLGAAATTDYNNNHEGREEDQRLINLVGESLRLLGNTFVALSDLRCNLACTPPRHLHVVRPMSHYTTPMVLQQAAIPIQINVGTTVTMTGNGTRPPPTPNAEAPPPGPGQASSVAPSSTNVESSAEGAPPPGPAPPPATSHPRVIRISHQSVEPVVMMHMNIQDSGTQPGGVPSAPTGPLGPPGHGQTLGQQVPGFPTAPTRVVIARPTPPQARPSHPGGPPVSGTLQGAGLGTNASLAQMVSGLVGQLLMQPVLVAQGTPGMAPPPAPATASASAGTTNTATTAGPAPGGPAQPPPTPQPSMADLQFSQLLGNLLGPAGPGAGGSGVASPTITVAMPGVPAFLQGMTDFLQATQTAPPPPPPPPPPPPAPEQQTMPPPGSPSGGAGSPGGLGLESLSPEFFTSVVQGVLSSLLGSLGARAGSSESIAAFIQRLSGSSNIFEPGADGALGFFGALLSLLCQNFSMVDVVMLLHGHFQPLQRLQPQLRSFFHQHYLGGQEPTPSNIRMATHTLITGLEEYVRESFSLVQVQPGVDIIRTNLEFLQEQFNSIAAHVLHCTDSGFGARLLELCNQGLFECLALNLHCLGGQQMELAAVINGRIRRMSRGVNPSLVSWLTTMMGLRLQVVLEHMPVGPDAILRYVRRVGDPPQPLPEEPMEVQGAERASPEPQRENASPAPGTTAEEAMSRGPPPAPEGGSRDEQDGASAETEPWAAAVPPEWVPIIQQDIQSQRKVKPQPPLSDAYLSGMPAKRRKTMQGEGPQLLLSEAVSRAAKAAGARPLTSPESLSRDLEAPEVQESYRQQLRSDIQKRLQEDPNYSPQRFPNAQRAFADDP
UniProt Q7L5D6: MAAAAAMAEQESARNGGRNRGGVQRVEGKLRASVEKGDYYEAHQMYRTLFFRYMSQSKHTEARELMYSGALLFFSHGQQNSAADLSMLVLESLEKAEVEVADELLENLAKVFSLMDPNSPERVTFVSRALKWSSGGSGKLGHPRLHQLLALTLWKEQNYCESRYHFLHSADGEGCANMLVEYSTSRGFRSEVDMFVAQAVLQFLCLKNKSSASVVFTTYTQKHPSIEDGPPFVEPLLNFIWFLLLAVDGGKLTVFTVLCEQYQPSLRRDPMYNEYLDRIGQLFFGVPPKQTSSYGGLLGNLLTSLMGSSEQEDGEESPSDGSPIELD

binding [1]	binding [3]	Substance	also measured
binds		transmembrane recognition complex 35 (TRC35), myc-FLAG-tagged (from UniProt Q7L5D6 1-327)	
binds		BAG6, wild type, FLAG-tagged, exogenously overexpressed (pRK5-FLAG-Bag6) (from UniProt P46379 1-1132)	binding [2]: binds
	binds	TDP43^219 (Val^219-TDP43^f), C-terminal fragment of human TDP43, amino acids 219 - 414, bearing N-terminal Val and a C-terminal FLAG tag (from UniProt Q13148 219-414) (domain or fragment)	
	no binding	TAR DNA-binding protein 43 (TDP43), endogenous, full-length (from UniProt Q13148 1-414)	
	binds	TDP43^247 (Val^247-TDP43^f), C-terminal fragment of human TDP43, amino acids 247 - 414, bearing N-terminal Val and a C-terminal FLAG tag (from UniProt Q13148 247-414) (domain or fragment)	
		Bcl-2 associated athanogene 6 (BAG6), endogenous (from UniProt P46379 1-1132)	binding [4]: binds; binding [5]: binds

Reference: paper PMC9079172
